# About 12,000 (3.5%) of roughly 340,000 compounds were called active. Inconclusive means that the source gave no clear call. Such entries were picked first, then a sample of the others. The call rests on the fitted dose curve; in most records, active means well fitted inhibition curve with a large enough effect; inconclusive means small, poorly fitted or top-dose-only effect, or another doubt; inactive means no such curve, though single readings can be large or run the other way. No potency is given beside an inconclusive call; the fits are too rough.
# Test: qHTS Assay for Inhibitors of Hepatitis C Virus (HCV)
# Conditions: Huh7.5.1 HCVcc-Cre (HCVcc is cell-culture hepatitis C virus) infection, luciferase reporter, 44 h; series mostly up to 41.8 µM
# In short: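 Cells seeded at 1,000/well and cultured 4 h, then compounds added followed by HCVcc-Cre virus (~0.5 moi). After 44 h further culture, luciferase substrate was added, plates held 15 min at room temperature, and luminescence read for 15 sec.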
# Potency means the concentration at half of the fitted maximal effect; tags describe the fitted curve by direction and shape.
row,Compound,Potency
1,COCCNC(=O)c1cccc(OC2CCN(Cc3ccc(C(=O)OC)cc3)CC2)c1,"inconclusive [inhibitor, partial curve]"
2,COc1ccccc1N1CCN(C(c2cccs2)c2nnnn2C2CCCC2)CC1 (stereo not given),"inconclusive [inhibitor, partial curve]"
3,CCCN(CC(=O)Nc1ccccc1C)C(=O)c1ccc(N2CCCC2)c([N+](=O)[O-])c1,inactive
4,CCN(CC)CCCn1c(C)cc2c(c1=O)C(c1cc(OC)c(OC)cc1OC)C(C#N)=C(N)O2 (stereo not given),inactive
5,Cc1ccc(C(=O)N(CC(=O)NC2CCCC2)c2ccc3c(c2)OCCO3)s1,"inconclusive [inhibitor, partial curve]"
6,Cc1ccc2c(c1)c(/C=C/c1cc[n+](C)cc1)c(C)n2C,active: 10 µM
7,Cc1ccccc1-n1nc(C)c2c(C(=O)NN)cc(-c3ccncc3)nc21,"inconclusive [inhibitor, partial curve, poor fit]"
8,CCOc1ccccc1OCCCC(=O)Nc1cccc(S(=O)(=O)N2CCOCC2)c1,"inconclusive [inhibitor, partial curve]"
9,CC1Cc2ccccc2N1S(=O)(=O)c1cccc(C(=O)Nc2cccnc2)c1 (stereo not given),"inconclusive [inhibitor, single point]"
10,O=C(CSc1nnnn1-c1cccc2c1CCCC2)N1CCOCC1,"inconclusive [inhibitor, partial curve]"
11,COc1cc(-c2cc(C(=O)Nc3nc4ccccc4s3)c3ccccc3n2)cc(OC)c1OC,"inconclusive [inhibitor, full curve, poor fit]"
12,CC(=O)N(C)Cc1ccc(C(=O)CSc2nnc(C3CC3)n2C2CC2)cc1,"inconclusive [inhibitor, partial curve, poor fit]"
13,Cc1cnc(NC(=O)CC(C)c2ccccc2)s1 (stereo not given),"inconclusive [inhibitor, partial curve]"
14,Cc1ccc(C(=O)NCCCc2ccccc2)c(C)c1,inactive
15,CCOc1ccc(CCNC(=O)C(C)N2C(=O)CC(C)(C)Sc3ccccc32)cc1 (stereo not given),"inconclusive [inhibitor, single point]"
16,COc1ccccc1C(=O)NC(=O)COC(=O)CN1C(=O)NC(C)(C)C1=O,inactive
17,CC(C)(C)c1ccc(C(=O)NCc2cccnc2)cc1,inactive
18,Cc1ccc2cccc(NC(=S)NC(=O)c3ccnn3C)c2n1,"inconclusive [inhibitor, single point]"
19,Cn1c(C(=O)N2CCCC(C(=O)NCCc3ccccc3)C2)cc2sccc21 (stereo not given),"inconclusive [inhibitor, single point]"
20,COc1ccc(-n2c(C)cc(C(=O)CN3C(=O)NC4(CCCc5sccc54)C3=O)c2C)cc1 (stereo not given),"inconclusive [inhibitor, single point]"
21,Cn1c(NCC(O)c2ccccc2)nc2c1c(=O)n(Cc1ccc(Cl)c(Cl)c1)c(=O)n2C (stereo not given),"inconclusive [inhibitor, single point]"
22,O=C(NCCc1ccccc1)c1ccc2c(c1)N(Cc1ccccc1)CCS2,"inconclusive [inhibitor, partial curve, poor fit]"
23,COc1ccc(-c2cc(C(F)(F)F)n3ncc(C(=O)NCc4ccco4)c3n2)cc1,"inconclusive [inhibitor, single point]"
24,O=C(Nc1c(F)cccc1F)c1ccc2c(c1)CCN2S(=O)(=O)c1ccccc1,"inconclusive [inhibitor, single point]"
25,Cc1nn(CC(=O)N(C)C)c(=O)c2ccccc12,inactive

row,Compound,Potency
1,Oc1ccc(/C=N/N2CCCCC2)cc1O,inactive
2,O=C(c1ccccc1)c1ccc2nc(-c3ccco3)c(-c3ccco3)nc2c1,"inconclusive [inhibitor, partial curve]"
3,COc1cccc(C(=O)NC(=O)Nc2cc(C)[nH]n2)c1,inactive
4,CN1CCN(C(=O)c2ccccc2NC(=O)C(C)(C)C)CC1,inactive
5,CC(C)(C)c1ccc(COn2c(=O)c(-c3ccco3)[n+]([O-])c3ccccc32)cc1,inactive
6,Fc1ccc(NCc2nnc(SCc3nnc(-c4ccccc4)o3)n2Cc2ccccc2)cc1,"inconclusive [inhibitor, partial curve]"
7,Cc1ccc(C)n1Cc1ccccc1Cl,inactive
8,N#Cc1ccsc1NC(=O)c1ccc(Cl)c([N+](=O)[O-])c1,inactive
9,COC(=O)c1c(C(=O)OC)c(-c2cccc(Cl)c2)n2c1CS(=O)C2 (stereo not given),"inconclusive [inhibitor, single point]"
10,Cc1ccc(NC(=O)c2c(Cl)n(C)c3ccccc23)cc1,"inconclusive [inhibitor, partial curve, poor fit]"
11,COc1ccccc1C(=O)N(Cc1nc(-c2ccc(Cl)cc2)no1)C(C)C,active: 11.2 µM
12,CC(CCc1ccco1)NC(=O)Cn1ncc2c1-c1ccccc1OC2 (stereo not given),inactive
13,O=C(NCCCCCCNC(=O)c1ccccc1O)c1ccccc1O,active: 10 µM
14,COc1ccc(/C=C/C(=O)NC(=S)N2C[C@H]3C[C@H](C2)c2cccc(=O)n2C3)cc1OC,"inconclusive [inhibitor, single point]"
15,CC(=O)Nc1ccc(S(=O)(=O)NCCSCc2c(Cl)cccc2Cl)cc1,"inconclusive [inhibitor, single point]"
16,O=C(/C=C/c1ccco1)NC(=S)Nc1cccc([N+](=O)[O-])c1,"inconclusive [inhibitor, partial curve]"
17,O=S(=O)(NC1c2cccc3cccc(c23)C1Sc1ncccn1)c1ccc(Cl)cc1 (stereo not given),"inconclusive [inhibitor, single point]"
18,CC(C)NC(=O)C(=O)Nc1ccc2c(c1)N(S(=O)(=O)c1cccs1)CCC2,"inconclusive [inhibitor, partial curve]"
19,CCC(CO)Oc1cc(NCc2ccncc2)c2ncn(C(C)C)c2c1 (stereo not given),inactive
20,CN(C)C(CNc1nnnn1-c1ccccc1)c1ccco1 (stereo not given),inactive
21,Oc1ccccc1Nc1nc(NCc2ccco2)c2ccccc2n1,active: 12.6 µM
22,O=C(CSc1nnc(Cc2cccs2)n1-c1ccccc1)NC1CCCCC1,inactive
23,Oc1ccc(Nc2ncnc3c2oc2ccccc23)cc1,"inconclusive [inhibitor, partial curve]"
24,Cc1ccc(NC2(c3nnnn3-c3c(C)cccc3C)CCCCC2)cc1,"inconclusive [inhibitor, single point]"
25,COc1ccc2c(C)cc(SCc3c(C)noc3C)nc2c1,active: 6.31 µM

row,Compound,Potency
1,CCN1CCN(C(=O)c2ccc3c(=O)n(CCC4=CCCCC4)c(=O)[nH]c3c2)CC1,"inconclusive [inhibitor, single point]"
2,COc1ccc(-n2ncc3c(N(C)C4CCCCC4)ncnc32)cc1,inactive
3,COc1ccc(NC(=O)c2ccc(S(=O)(=O)NCc3cccnc3)cc2)cc1,"inconclusive [inhibitor, single point]"
4,CC(=O)c1cccc(OCc2cc(C(=O)NCCC3=CCCCC3)no2)c1,"inconclusive [inhibitor, single point]"
5,O=C(O)c1ccc(S(=O)(=O)N2CCC(NC(=O)C3CCCCC3)CC2)cc1,inactive
6,CC(=O)c1ccc(S(=O)(=O)N2CCN(CCOc3ccccc3)CC2)cc1,"inconclusive [inhibitor, single point]"
7,Cc1cc(C(=O)Cn2ncc(Cl)c(Cl)c2=O)c(C)n1CC(F)(F)F,"inconclusive [inhibitor, single point]"
8,Cc1ccsc1/C=N/NC(=O)c1c[nH]c2ccccc12,inactive
9,C=C(C(=O)c1ccccc1)C(CC(=O)c1ccccc1)c1ccccc1 (stereo not given),active: 12.6 µM
10,Cc1ccccc1-c1nc(CS(=O)CC(=O)NCc2ccccc2)c(C)o1 (stereo not given),inactive
11,COc1ccc2oc(C(=O)OCC(=O)NCCc3ccccc3)c(C)c2c1,inactive
12,COc1ccc(NC(=O)CN(C)S(=O)(=O)c2ccc3c(c2)CC(C)N3C(C)=O)c(OC)c1 (stereo not given),"inconclusive [inhibitor, partial curve]"
13,CS(=O)(=O)n1nc(-c2ccccc2)nc1NCc1ccco1,"inconclusive [inhibitor, single point]"
14,COc1ccc(CNC(=O)c2ccc(Cn3nc(C)cc3C)o2)cc1,inactive
15,COc1cc(CN2CCC(N3CCC(C(=O)N4CCCC4)CC3)CC2)cc2c1OCO2,active: 10 µM
16,CCC1=Nc2cc(C(=O)NCCCOC)ccc2Sc2ccccc21,"inconclusive [inhibitor, partial curve]"
17,O=C(CN(C(=O)CCC(=O)Nc1nccs1)c1ccccc1F)NCc1ccc(F)cc1,"inconclusive [inhibitor, single point]"
18,CCOc1ccc(NC(=O)Nc2cccs2)cc1,inactive
19,S=C(NCc1cccnc1)Nc1cccc2ccccc12,inactive
20,Cc1cc(=S)n(-c2ccccc2)n1C,inactive
21,Cc1ccc(NC(=O)CCC(=O)N2CCOCC2)nc1,"inconclusive [inhibitor, single point]"
22,COc1cc(OC)c(/C=N/NC(=O)c2ccncc2)c(OC)c1,inactive
23,O=C(N/N=C1\CC2CC=CC12)c1ccc(O)cc1 (stereo not given),inactive
24,CC(=NCCc1c(C)[nH]c2ccc(C)cc12)C1=C(O)CC(c2ccccc2)CC1=O (stereo not given),"inconclusive [inhibitor, partial curve]"
25,CCN(C(=O)COC(=O)c1ccccc1NCCO)c1cccc2ccccc12,"inconclusive [inhibitor, single point]"

# Source: PubChem BioAssay AID651820 (National Center for Advancing Translational Sciences (NCATS), 2012)
